Each structure is given as a SMILES string. In all, about 50,000 compounds went through this assay and about 800 (1.6%) showed an effect of 50% or more. This is one part of the list.

The experiment has as its target Bcl-2-like protein 10 (Homo sapiens) (UniProt Q9HD36). Put plainly: TR3 peptide-Bcl-B binding displacers, biochemical primary FP assay, phenotype converters (AID 1240).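 Also: 0% = Bcl-B with tracer peptide and DMSO and 100% = tracer peptide lacking Bcl-B.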 The note with it: GST-Bcl-B / FITC-TR3 peptide fluorescence polarization; stronger effect = higher value; compound at 3.75 mg/L. In general terms: Fluorescence polarisation rises when a labelled molecule tumbles more slowly, as on binding a larger partner.
Sequence of UniProt Q9HD36 (Q9HD36 whole entry, looked up): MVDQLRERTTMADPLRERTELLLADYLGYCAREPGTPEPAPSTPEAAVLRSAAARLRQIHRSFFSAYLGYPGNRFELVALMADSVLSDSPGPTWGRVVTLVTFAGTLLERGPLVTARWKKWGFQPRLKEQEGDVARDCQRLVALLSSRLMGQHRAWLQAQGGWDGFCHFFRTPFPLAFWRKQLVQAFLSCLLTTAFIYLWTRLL
`O=C(O)c1ccc2c(c1)C(=O)N(c1ccc(-c3nc4cc(N5C(=O)c6ccc(C(=O)O)cc6C5=O)ccc4[nH]3)cc1)C2=O`: the displacement amounted to 17%.

Take `O=C1NC(=S)NC(=O)C1=Cc1ccccc1OCCOc1ccc([N+](=O)[O-])cc1`: the displacement was found to be 8%.

As to `COC(=O)C1=C(C)N(c2cccc(C(F)(F)F)c2)C(=O)C1`, the displacement was -6.4%.

Turning to `COc1ccc(C2CC(=O)C3=C(C2)Nc2ccccc2NC3c2cccs2)cc1` (stereo not drawn), the displacement was -6.8%.

Consider `CC(C)c1nc2c(c3c1[nH]c1ccccc13)C(=O)CC(C)(C)C2`, for which the displacement was 11.8%.

Turning to `O=[N+]([O-])c1ccc(N2CCN(c3nc4ccc([N+](=O)[O-])cc4s3)CC2)cc1`, the displacement is -19%.

Turning to `CC1(C)CC(=O)C=C(Nc2ccccc2C#N)C1`, the displacement is 14.4%.

With `O=C(c1ccccc1O)N1N=CCC1(O)c1ccc(Cl)cc1` (stereo not drawn), the displacement is -7.7%.

For the molecule `O=C(Nc1cc(C(F)(F)F)ccc1Cl)C(O)(c1ccccc1)c1ccccc1`, the displacement worked out at 5.1%.

Take `Cc1ccc(C(=O)Nc2nc(C34CC5CC(CC(C5)C3)C4)c(C)s2)cc1`: the displacement turned out to be 11.4%.

Regarding `Cc1ccc([N+](=O)[O-])cc1Cc1ccccc1`, the displacement amounted to 10.2%.

On to `O=C(N/N=C/c1ccc([N+](=O)[O-])o1)C1COc2ccccc2O1` (stereo not drawn), for which the displacement came out at 0.6%.

Consider `Nc1nc2c(s1)-c1ccccc1CC2`, for which the displacement was found to be 15.4%.

`O=C1/C(=C\c2cc([N+](=O)[O-])ccc2O)SC(=S)N1c1cccc(C(F)(F)F)c1`: the displacement is -16.7%.

For `O=C(O)c1cccnc1SCc1ccc([N+](=O)[O-])cc1`, the displacement was determined as 1.8%.

With `C=C(C)c1cccc(C(C)(C)NC(=O)N(Cc2ccccc2)Cc2ccco2)c1`, the displacement amounted to 5.6%.

Take `COc1cc(OC)c(C2Nc3ccccc3NC3=C2C(=O)CC(C)(C)C3)cc1OC` (stereo not drawn): the displacement is -0.6%.

As to `O=C(Nc1cccc(Br)c1)C1CC1`, the displacement was -1.2%.

With `Cc1cccc2c(N=NC(=O)COc3cccc(Br)c3)c(O)n(C)c12`, the displacement was found to be 4.9%.

Regarding `CC(C)CN1C(=O)/C(=C/c2cccc3ccccc23)SC1=S`, the displacement is 8.3%.

`O=C(c1ccccc1C(F)(F)F)N1CCOCC1`: the displacement came to 12.1%.

Turning to `CC(C)C(=O)NS(=O)(=O)c1ccc(NS(C)(=O)=O)cc1`, the displacement turned out to be 17.8%.

With `Cc1nn(-c2ccccc2)c(C)c1/C=N/NC(=O)CSc1nc2ccccc2[nH]1`, the displacement was -6%.

For `Cc1cc(-c2ccccc2)nc2cc(C(=O)N3CCCC3)nn12`, the displacement stood at 9.1%.

`COC(=O)c1c(N)sc2c1CCC(c1ccccc1)C2` (stereo not drawn): the displacement amounted to 0%.

Regarding `O=C(N/N=C/c1ccc(OC(=O)c2ccccc2Br)cc1)c1ccccn1`, the displacement was 8.6%.

With `CCOc1ccccc1C(=O)Nc1cc(C)ccc1C`, the displacement was -1.5%.

As to `CC(=O)Oc1cccc2c1C(=O)c1ccccc1C2=O`, the displacement worked out at 6.5%.

Turning to `COc1ccc(CCNC(=O)C(=O)Nc2ccc3c(c2)OCCO3)cc1OC`, the displacement was 3.4%.

As for `C=CCc1c(C)nc2c(C)c(-c3ccc(C)cc3)[nH]n2c1=O`, the displacement is 11.5%.

Turning to `Cc1c(-c2ccc(Cl)s2)nc2ccccc2c1C(=O)O`, the displacement worked out at 14.5%.

Take `COc1ccccc1CNC(=O)c1ccc(OC)c(OC)c1`: the displacement was -0.2%.

Consider `COC(=O)C(C(=O)OC)C1=C/C(=N/S(=O)(=O)c2ccc(C)cc2)c2ccccc2C1=O`, for which the displacement turned out to be 19%.

With `Cn1c(O)c(N=Nc2ccc(Br)cc2)c(=O)[nH]c1=O`, the displacement was -8.8%.

As to `O=[N+]([O-])c1cccc(S(=O)(=O)NCc2ccc(F)cc2)c1`, the displacement is -7.2%.

As for `COc1ccc(C2/C(=C(\O)c3ccc(C)cc3)C(=O)C(=O)N2c2ncc(S(=O)(=O)c3ccc([N+](=O)[O-])cc3)s2)cc1` (stereo not drawn), the displacement stood at 10.8%.

As for `CCOc1ccc(N2C(=O)/C(=C/c3ccc(N(CC)CC)o3)C(=O)NC2=S)cc1`, the displacement stood at 10.7%.

Take `COc1ccccc1N1CCN(/N=C\c2ccc(Cl)cc2Cl)CC1`: the displacement came out at 4.6%.

For the molecule `Cc1ccc(C)c(COc2cc3oc(=O)c4c(c3cc2Cl)CCC4)c1`, the displacement amounted to 14.1%.

With `CCCC1=NN(C(=O)c2cccc(Cl)c2)C(O)(C(F)(F)F)C1` (stereo not drawn), the displacement worked out at 0.2%.

In the case of `CCCC(=O)N1CCN(c2ccc(C(=O)CC)cc2F)CC1`, the displacement is -16.4%.

For `COc1cccc(CN2CCN(C3CCC(C)CC3)CC2)c1` (stereo not drawn), the displacement worked out at 17.9%.

With `Clc1ccc(-c2noc(-c3ccc(Cl)cc3Cl)n2)cc1`, the displacement was 4.3%.

As for `COc1cccc(/C=C2/C=C(c3ccc(C)cc3)OC2=O)c1OC(C)=O`, the displacement is -2.2%.

Turning to `CCc1ccccc1NC(=O)c1ccc(CN(c2cccc(Cl)c2)S(C)(=O)=O)cc1`, the displacement is -1%.

Take `O=C1c2ccccc2C(=O)c2c([N+](=O)[O-])ccc(N3CCCCC3)c21`: the displacement amounted to 17.9%.

In the case of `CC(C)=C(NC(=O)c1ccccc1)C(=O)N1CCCCC1`, the displacement was determined as 6.9%.

On to `O=C1/C(=C/c2ccc(I)cc2)SC(=S)N1c1ccc([N+](=O)[O-])cc1`, for which the displacement came out at 5.5%.

On to `O=C1CCC([N+](=O)[O-])C(c2ccc(Cl)c(Cl)c2)N1` (stereo not drawn), for which the displacement amounted to 0.5%.

Turning to `O=C(/C=C/c1ccco1)c1c(-c2ccccc2)c2cc(Cl)ccc2[nH]c1=O`, the displacement is -38.2%.

For `CCOc1ccccc1C1Nc2ccccc2NC2=C1C(=O)CC(C)(C)C2` (stereo not drawn), the displacement came out at 1.7%.

Take `CC(NS(=O)(=O)c1ccc(F)cc1)c1ccccc1` (stereo not drawn): the displacement was -5.1%.

For `Cc1ccc(C(=O)Nc2nc(-c3cccc4ccccc34)cs2)o1`, the displacement was -4.4%.

Consider `Cc1csc(NC(=O)c2ccc(C)c([N+](=O)[O-])c2)n1`, for which the displacement is -1.3%.

On to `O=C(NN1C(=O)c2ccccc2C1=O)c1ccccc1O`, for which the displacement came to 14.5%.

Take `O=C(Nc1ncccc1Cl)C1CCCO1` (stereo not drawn): the displacement came out at 9.4%.

On to `CCOC(=O)c1c(NC(=O)Cc2ccc(OC)cc2)sc(C(=O)Nc2ccc(C)c(Cl)c2)c1C`, for which the displacement stood at 3%.

Regarding `COc1ccc(C(=O)Nc2ccc(O)c(-c3nc4cc(Cl)ccc4o3)c2)cc1`, the displacement worked out at 40.1%.

Regarding `NC(N)=NS(=O)(=O)c1ccc(NC(=S)NC(=O)/C=C/c2ccc(Br)cc2)cc1`, the displacement is -0.6%.

Regarding `CCC1/C(=N\O)CC(c2ccco2)NC1c1ccco1` (stereo not drawn), the displacement was determined as 3.9%.

On to `CCC1=NN2C(=N)/C(=C/c3cccc(OCc4ccccc4F)c3)C(=O)N=C2S1`, for which the displacement worked out at 6.1%.

Regarding `COc1ccc(CCNC(=O)Cc2ccc(Cl)cc2)cc1OC`, the displacement is -1%.

In the case of `C=CCOc1ccc(/C=C2\C(=O)N(c3cccc(C(=O)O)c3)N=C2C)cc1OC`, the displacement worked out at 2.9%.

In the case of `Cc1cc2nc(-c3cc(NC(=O)Cc4ccccc4)ccc3O)oc2cc1C`, the displacement was found to be 2.3%.

As for `Cc1ccc(/C=C/C(=O)Nc2nc(-c3ccccc3)cs2)cc1`, the displacement was -7.3%.

For the molecule `N/C(=N\OC(=O)c1ccc([N+](=O)[O-])cc1Cl)c1cccc([N+](=O)[O-])c1`, the displacement is -6.4%.

`COc1ccc2c(c1)cc(C(=O)NN)n2C`: the displacement came to 67.4%.

Take `O=C(Oc1cccc([N+](=O)[O-])c1)c1ccc(-c2ccccc2)cc1`: the displacement was found to be 0.8%.

Consider `COc1ccc(NC(=S)NC(NC(=O)c2ccccc2F)C(Cl)(Cl)Cl)cc1` (stereo not drawn), for which the displacement turned out to be 1%.

For `COc1ccccc1NC(=O)C1(c2ccccc2)CCOCC1`, the displacement is -5.7%.

As for `COc1c(OC(C)=O)ccc(/C=N\NC(=O)COc2cccc(Cl)c2)c1[N+](=O)[O-]`, the displacement was 2.4%.

Take `CCN(CC)S(=O)(=O)c1ccc(Cl)c(C(=O)Nc2cccc(F)c2)c1`: the displacement came out at 2.8%.

As to `O=C(Nc1ccc(N2CCOCC2)cc1)c1ccccc1F`, the displacement is 13.1%.

Take `CC(=O)C1=C(O)C(=O)N(CCN(C)C)C1c1ccccc1[N+](=O)[O-]` (stereo not drawn): the displacement is -3.6%.

Consider `CCOCCOC(=O)C1=C(C)NC2=C(C(=O)CCC2)C1c1cccc(OC)c1OC` (stereo not drawn), for which the displacement came to 8.6%.

In the case of `C=CCOc1ccc(/C=C2\C(=O)NC(=O)N(c3cc(C)cc(C)c3)C2=O)cc1`, the displacement is -11.2%.

Regarding `Cc1ccc(NC(=O)c2cc(NC(=O)c3ccccc3)cc(NC(=O)c3ccccc3)c2)cc1`, the displacement was 10.5%.

As to `CCOC(=O)c1sc(NC(=O)c2ccc(C)cc2)c(C(=O)OCC)c1C`, the displacement is -0.3%.

In the case of `CC(NC(=O)CN(c1ccc(Br)cc1)S(C)(=O)=O)c1ccccc1` (stereo not drawn), the displacement amounted to 3.4%.

For the molecule `CN(C)c1ccc(C2CC(=O)NC3=C2C(=O)CC(C)(C)C3)cc1` (stereo not drawn), the displacement was determined as 3.9%.

Take `O=C(N[C@@H]1CSC/C1=N\O)c1ccccc1`: the displacement amounted to 3.5%.

As to `COc1ccc(/C=C/C(=O)n2nc(C)cc2C)cc1OC`, the displacement was determined as 1.4%.

As for `O=C(O)c1ccc(NS(=O)(=O)c2cccs2)cc1`, the displacement was -1%.

With `CCc1ccc2oc(-c3cccc(NC(=O)COc4ccc(OC)cc4)c3)nc2c1`, the displacement was determined as 10.1%.

For `CCOC(=O)C1=C(C)N=c2s/c(=C\c3ccc(OC)cc3OC)c(=O)n2C1/C=C/c1ccccc1` (stereo not drawn), the displacement was 7.5%.

`COCCOC(=O)C1=C(C)N(C)C(=O)NC1c1ccc(Br)cc1` (stereo not drawn): the displacement is -8.1%.

Consider `NC(=O)C1CCCc2c1[nH]c1ccccc21` (stereo not drawn), for which the displacement turned out to be 13.2%.

Consider `COc1ccc(OC)c(NC(=O)CCc2ccccc2)c1`, for which the displacement was 2.7%.

With `O=C(c1ccc(N2CCN(C(=O)c3ccc(F)cc3)CC2)cc1)c1cccc(F)c1`, the displacement was -6.4%.

As for `CC(C)=C1C2CCC1C(C(=O)NCCC1=CCCCC1)C2C(=O)O` (stereo not drawn), the displacement came to 0.7%.

On to `COc1cc(/C=N/Nc2ccc3ccccc3n2)cc(Br)c1O`, for which the displacement was 9.9%.

For `Cc1ccc(Cl)cc1NC(=O)CSC(N)=O`, the displacement turned out to be 5.7%.

`Cc1cc(Cl)cc(C)c1OCCOCCN1CCN(C)CC1`: the displacement was -7.2%.

In the case of `CN(C)S(=O)(=O)NCCNc1ccc([N+](=O)[O-])cc1`, the displacement is -6%.

Turning to `CCOc1cc(/C=C2/SC(=S)N(C)C2=O)ccc1OC(=O)c1ccc(F)cc1`, the displacement came out at 13.6%.

As to `CC(=O)c1c(C)nn2c3ccccc3n(C)c12`, the displacement is -16%.

Take `Cc1c(OCc2ccccc2)ccc2c3c(c(=O)oc12)CCC3`: the displacement was determined as 12%.

`NNC(=O)c1cc(C(=O)O)nc2ccc(Br)cc12`: the displacement came out at 0.1%.

Take `CC(=O)OCC12COC(C)C(C1)C(C)=CC2C` (stereo not drawn): the displacement came out at 17.9%.

For the molecule `Fc1ccc(-c2nnc(-c3ccc(Br)o3)o2)cc1`, the displacement was -6.5%.

Take `COc1ccc(Cn2c(O)c(/C=C3\C=CC=N3)c(=O)[nH]c2=O)cc1`: the displacement was found to be 12.5%.

As to `CCC(=O)c1ccc(N2CCCCCC2)c(F)c1`, the displacement is -4.9%.

As for `O=C(N/C(=C\c1ccc(-c2ccc(Cl)cc2)o1)C(=O)N1CCOCC1)c1ccccc1`, the displacement came out at 1%.

Consider `CCOc1ccc(NC(=O)c2cc(C(=O)O)ccc2C(=O)O)cc1`, for which the displacement worked out at 8%.

On to `Cc1cccc(OCC(=O)Nc2ccccc2C(F)(F)F)c1`, for which the displacement came to 10.8%.

Turning to `CSc1nc2c(c(-c3ccc(Cl)cc3)c1C#N)C(=O)CC(C)(C)C2`, the displacement was -10.4%.

For the molecule `CC(C)(C)c1ccc(OCCOc2cccc(C=C3C(=O)NC(=O)NC3=O)c2)cc1`, the displacement came out at 3.2%.

In the case of `O=[N+]([O-])c1ccc(Sc2nc3ccccc3s2)c(C(F)(F)F)c1`, the displacement came out at 0.4%.
